These results are taken from patent publication US9873709B2 (priority 2013, dated 2018).

The assay deals with isolated recombinant JAK1 kinase domain (Homo sapiens (Human), UniProt P23458). The conditions noted are these: read-out: JAK1 Ki; isolated recombinant JAK1 kinase domain, 25 μM ATP.
For the compound `CCOC(=O)N1CC=C(c2cccn3nc(Nc4ccc(C(=O)N5CCCC(CCN(C)C)C5)cc4)nc23)CC1` (centres unmarked) [Example 2-242, ethyl 4-[2-[4-[3-[2-(dimethylamino)ethyl]piperidine-1-carbonyl]anilino]-[1,2,4]triazolo[1,5-a]pyridin-8-yl]-3,6-dihydro-2H-pyridine-1-carboxylate], the Ki (commonly a dissociation constant, usually derived from enzyme kinetics or from competition with a known ligand) came out at 6.4 nM.

Regarding `CCOC(=O)N1CC=C(c2cccn3nc(Nc4ccc(C(=O)N5CCN(C)CC5C(=O)N(C)C)cc4)nc23)CC1` (centres unmarked) [Example 2-243, ethyl 4-[2-[4-[2-(dimethylcarbamoyl)-4-methyl-piperazine-1-carbonyl]anilino]-[1,2,4]triazolo[1,5-a]pyridin-8-yl]-3,6-dihydro-2H-pyridine-1-carboxylate], the inhibition constant Ki stood at 5.47 nM. For `CCOC(=O)N1CC=C(c2cccn3nc(Nc4ccc(C(=O)NCc5ccc(C)nc5)cc4)nc23)CC1` [Example 2-245, ethyl 4-[2-[4-[(6-methyl-3-pyridyl)methylcarbamoyl]anilino]-[1,2,4]triazolo[1,5-a]pyridin-8-yl]-3,6-dihydro-2H-pyridine-1-carboxylate] the value was 3.04 nM. To `CCOC(=O)N1CC=C(c2cccn3nc(Nc4ccc(C(=O)N5CC[C@H]6CNC[C@H]65)cc4)nc23)CC1` [Example 2-246, ethyl 4-[2-[4-[(3aS,6aS)-3,3a,4,5,6,6a-hexahydro-2H-pyrrolo[2,3-c]pyrrole-1-carbonyl]anilino]-[1,2,4]triazolo[1,5-a]pyridin-8-yl]-3,6-dihydro-2H-pyridine-1-carboxylate] belongs 2.09 nM; to `CCOC(=O)N1CC=C(c2cccn3nc(Nc4ccc(C(=O)N5CCCCC56CCCNC6)cc4)nc23)CC1` (centres unmarked) [Example 2-247, ethyl 4-[2-[4-(1,8-diazaspiro[5.5]undecane-1-carbonyl)anilino]-[1,2,4]triazolo[1,5-a]pyridin-8-yl]-3,6-dihydro-2H-pyridine-1-carboxylate], 4.37 nM; to `CCOC(=O)N1CC=C(c2cccn3nc(Nc4ccc(C(=O)N5C[C@H]6CN[C@H]6C5)cc4)nc23)CC1` [Example 2-248, ethyl 4-[2-[4-[(1R,5R)-3,6-diazabicyclo[3.2.0]heptane-3-carbonyl]anilino]-[1,2,4]triazolo[1,5-a]pyridin-8-yl]-3,6-dihyro-2H-pyridine-1-carboxylate], 4.13 nM.

As to `CCOC(=O)N1CC=C(c2cccn3nc(Nc4ccc(C(=O)NCC5CCN(C)CC5)cc4)nc23)CC1` [Example 2-249, ethyl 4-[2-[4-[(1-methyl-4-piperidyl)methylcarbamoyl]anilino]-[1,2,4]triazolo[1,5-a]pyridin-8-yl]-3,6-dihydro-2H-pyridine-1-carboxylate], the Ki came out at 19.6 nM.

Turning to `CCOC(=O)N1CC=C(c2cccn3nc(Nc4ccc(C(=O)N5CCN(c6ccccn6)CC5)cc4)nc23)CC1` [Example 2-251, ethyl 4-[2-[4-[4-(2-pyridyl)piperazine-1-carbonyl]anilino]-[1,2,4]triazolo[1,5-a]pyridin-8-yl]-3,6-dihydro-2H-pyridine-1-carboxylate], the Ki came to 3.69 nM.

On to `CCOC(=O)N1CC=C(c2cccn3nc(Nc4ccc(C(=O)N5CCC6(CCCNC6)CC5)cc4)nc23)CC1` [Example 2-252, ethyl 4-[2-[4-(2,9-diazaspiro[5.5]undecane-9-carbonyl)anilino]-[1,2,4]triazolo[1,5-a]pyridin-8-yl]-3,6-dihydro-2H-pyridine-1-carboxylate], for which the Ki worked out at 2.34 nM. For `O=C(CCC(F)(F)F)N1CC=C(c2cccn3nc(Nc4ccc(C(=O)N5CCC6(CCCNC6)C5)cc4)nc23)CC1` (centres unmarked) [Example 2-253, 1-[4-[2-[4-(2,9-diazaspiro[4.5]decane-2-carbonyl)anilino]-[1,2,4]triazolo[1,5-a]pyridin-8-yl]-3,6-dihydro-2H-pyridin-1-yl]-4,4,4-trifluoro-butan-1-one] the value was 1.43 nM; for `O=C(CCC(F)(F)F)N1CC=C(c2cccn3nc(Nc4ccc(C(=O)N5CCOC6(CCNCC6)C5)cc4)nc23)CC1` [Example 2-254, 4,4,4-trifluoro-1-[4-[2-[4-(1-oxa-4,9-diazaspiro[5.5]undecane-4-carbonyl)anilino]-[1,2,4]triazolo[1,5-a]pyridin-8-yl]-3,6-dihydro-2H-pyridin-1-yl]butan-1-one], 1.37 nM; for `O=C(NC1CCNC1)c1ccc(Nc2nc3c(C4=CCN(C(=O)CCC(F)(F)F)CC4)cccn3n2)cc1` (centres unmarked) [Example 2-255, N-pyrrolidin-3-yl-4-[[8-[1-(4,4,4-trifluorobutanoyl)-3,6-dihydro-2H-pyridin-4-yl][1,2,4]triazolo[1,5 a]pyridin-2-yl]amino]benzamide], 2.86 nM. To `NC1CN(C(=O)c2ccc(Nc3nc4c(C5=CCN(C(=O)CCC(F)(F)F)CC5)cccn4n3)cc2)C1` [Example 2-256, 1-[4-[2-[4-(3-aminoazetidine-1-carbonyl)anilino]-[1,2,4]triazolo[1,5-a]pyridin-8-yl]-3,6-dihydro-2H-pyridin-1-yl]-4,4,4-trifluoro-butan-1-one] belongs 0.67 nM; to `O=C(CCC(F)(F)F)N1CC=C(c2cccn3nc(Nc4ccc(C(=O)N5CCCC56CCCNC6)cc4)nc23)CC1` (centres unmarked) [Example 2-257, 1-[4-[2-[4-(1,9-diazaspiro[4.5]decane-1-carbonyl)anilino]-[1,2,4]triazolo[1,5-a]pyridin-8-yl]-3,6-dihydro-2H-pyridin-1-yl]-4,4,4-trifluoro-butan-1-one], 1.87 nM. `CN1CCOC2(C1)CN(C(=O)c1ccc(Nc3nc4c(C5=CCN(C(=O)CCC(F)(F)F)CC5)cccn4n3)cc1)C2` [Example 2-259, 4,4,4-trifluoro-1-[4-[2-[4-(8-methyl-5-oxa-2,8-diazaspiro[3.5]nonane-2-carbonyl)anilino]-[1,2,4]triazolo[1,5-a]pyridin-8-yl]-3,6-dihydro-2H-pyridin-1-yl]butan-1-one]: the Ki turned out to be 0.97 nM. For `O=C(CCC(F)(F)F)N1CC=C(c2cccn3nc(Nc4ccc(C(=O)N5CCN(C6CCC6)CC5)cc4)nc23)CC1` [Example 2-260, 1-[4-[2-[4-(4-cyclobutylpiperazine-1-carbonyl)anilino]-[1,2,4]triazolo[1,5-a]pyridin-8-yl]-3,6-dihydro-2H-pyridin-1-yl]-4,4,4-trifluoro-butan-1-one] the value was 1.83 nM. To `CN(C)C(=O)C1(c2ccncc2)CCCN1C(=O)c1ccc(Nc2nc3c(C4=CCN(C(=O)CCC(F)(F)F)CC4)cccn3n2)cc1` (centres unmarked) [Example 2-261, N,N-dimethyl-2-(4-pyridyl)-1-[4-[[8-[1-(4,4,4-trifluorobutanoyl)-3,6-dihydro-2H-pyridin-4-yl]-[1,2,4]triazolo[1,5-a]pyridin-2-yl]amino]benzoyl] pyrrolidine-2-carboxamide] belongs 1.67 nM; to `CN1CCN(C(=O)C2COCCN2C(=O)c2ccc(Nc3nc4c(C5=CCN(C(=O)CCC(F)(F)F)CC5)cccn4n3)cc2)CC1` (centres unmarked) [Example 2-262, 4,4,4-trifluoro-1-[4-[2-[4-[3-(4-methylpiperazine-1-carbonyl)morpholine-4-carbonyl]anilino]-[1,2,4]triazolo[1,5-a]pyridin-8-yl]-3,6-dihydro-2H-pyridin-1-yl]butane-1-one], 0.91 nM; to `CC1CC(C(=O)N2CC=C(c3cccn4nc(Nc5ccc(C(=O)N(C)C6CCN(C)CC6)cc5)nc34)CC2)C1` (centres unmarked) [Example 2-263, N-methyl-4-[[8-[1-(3-methylcyclobutanecarbonyl)-3,6-dihydro-2H-pyridin-4-yl]-[1,2,4]triazolo[1,5-a]pyridin-2-yl]amino]-N-(1-methyl-4-piperidyl)benzamide], 1.43 nM.

As for `CN1CCC(OC(=O)c2ccc(Nc3nc4c(C5=CCN(C(=O)CCC(F)(F)F)CC5)cccn4n3)cc2)CC1` [Example 2-264, (1-methyl-4-piperidyl) 4-[[8-[1-(4,4,4-trifluorobutanoyl)-3,6-dihydro-2H-pyridin-4-yl]-[1,2,4]triazolo[1,5-a]pyridin-2-yl]amino]benzoate], the Ki was 0.81 nM. To `O=C(CCC(F)(F)F)N1CC=C(c2cccn3nc(Nc4ccc(C(=O)N5CCCCC5Cc5ccccn5)cc4)nc23)CC1` (centres unmarked) [Example 2-265, 4,4,4-trifluoro-1-[4-[2-[4-[2-(2-pyridylmethyl)piperidine-1-carbonyl]anilino]-[1,2,4]triazolo[1,5-a]pyridin-8-yl]-3,6-dihydro-2H-pyridin-1-yl]butan-1-one] belongs 0.56 nM; to `CC(C)CN1CCN(C(=O)c2ccc(Nc3nc4c(C5=CCN(C(=O)CCC(F)(F)F)CC5)cccn4n3)cc2)CC1` [Example 2-266, 4,4,4-trifluoro-1-[4-[2-[4-(4-isobutylpiperazine-1-carbonyl)anilino]-[1,2,4]triazolo[1,5-a]pyridin-8-yl]-3,6-dihydro-2H-pyridin-1-yl]butan-1-one], 1.34 nM. In the case of `CN1CCC(N(C)C(=O)c2ccc(Nc3nc4c(C5=CCN(C(=O)CCC(F)(F)F)CC5)cccn4n3)cc2)C1` (centres unmarked) [Example 2-267, N-methyl-N-(1-methylpyrrolidin-3-yl)-4-[[8-[1-(4,4,4-trifluorobutanoyl)-3,6-dihydro-2H-pyridin-4-yl]-[1,2,4]triazolo[1,5-a]pyridin-2-yl]amino]benzamide], the Ki stood at 1.61 nM.

In the case of `CC1CN(CCNC(=O)c2ccc(Nc3nc4c(C5=CCN(C(=O)CCC(F)(F)F)CC5)cccn4n3)cc2)CC(C)O1` (centres unmarked) [Example 2-268, N-[2-(2,6-dimethylmorpholin-4-yl)ethyl]-4-[[8-[1-(4,4,4-trifluorobutanoyl)-3,6-dihydro-2H-pyridin-4-yl]-[1,2,4]triazolo[1,5-a]pyridin-2-yl]amino]benzamide], the Ki was 0.6 nM. To `CC1CC(C)CN(CCNC(=O)c2ccc(Nc3nc4c(C5=CCN(C(=O)CCC(F)(F)F)CC5)cccn4n3)cc2)C1` (centres unmarked) [Example 2-269, N-[2-(3,5-dimethyl-1-piperidyl)ethyl]-4-[[8-[1-(4,4,4-trifluorobutanoyl)-3,6-dihydro-2H-pyridin-4-yl]-[1,2,4]triazolo[1,5-a]pyridin-2-yl]amino]benzamide] belongs 0.88 nM; to `CN1CCN(CCNC(=O)c2ccc(Nc3nc4c(C5=CCN(C(=O)CCC(F)(F)F)CC5)cccn4n3)cc2)CC1` [Example 2-270, N-[2-(4-methylpiperazin-1-yl)ethyl]-4-[[8-[1-(4,4,4-trifluorobutanoyl)-3,6-dihydro-2H-pyridin-4-yl]-[1,2,4]triazolo[1,5-a]pyridin-2-yl]amino]benzamide], 0.62 nM.
